{
  "source": "the supplement of paper PMC10126150",
  "note": "Values marked as one replicate rest on one cluster of the flow cell; about a third of the high ones do not repeat.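 Note: ATP exposure 15 min at 22 °C before imaging.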",
  "data": [
    {"tested_on": "ATP", "assay": "switch fluorescence ratio, 500 uM ATP over buffer (Cy3 cluster intensity, sum of 5 cycles each) (fold (ratio)); higher = stronger signal-on switching upon ATP binding; sequences stand for … in TCGTCGGCAGCGTCAGATGTGTATAAGAGACAGTTTTTTTTTTTTTTTTTTTTTTTTT…TC", "settings": "aptamer strand: ATP DNA aptamer (quencher-CACCTGGGGGAGTATTGCGGAGGAAGG + anchor), 100 nM annealed; ATP concentration: 500 uM; one replicate", "method_in_brief": "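Per cluster, summed Cy3 intensity from the target cycles was divided by that from the buffer cycles to give the fluorescence ratio, then averaged per switch-domain sequence. Clusters outside 100-1000 RFU were excluded. The Cy3-labelled switching-strand clusters, on a modified Illumina MiSeq flow-cell, were annealed to 100 nM quencher-labelled ATP aptamer and imaged in selection buffer, then after 15 min with 500 uM ATP at 22 °C, for five cycles with NaOH stripping and re-annealing between them.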", "values": [
      {"sequence": "CAAATGTTCG", "switch fluorescence ratio": 1.01},
      {"sequence": "CAAATTATGT", "switch fluorescence ratio": 0.987},
      {"sequence": "CAACAACCTC", "switch fluorescence ratio": 1.03},
      {"sequence": "CAACACTTAA", "switch fluorescence ratio": 1.03},
      {"sequence": "CAACATTC", "switch fluorescence ratio": 1},
      {"sequence": "CAACCATGCG", "switch fluorescence ratio": 1.02},
      {"sequence": "CAACCGATTT", "switch fluorescence ratio": 1.18},
      {"sequence": "CAACCGGCGC", "switch fluorescence ratio": 1.16},
      {"sequence": "CAACCTAGGT", "switch fluorescence ratio": 0.989},
      {"sequence": "CAACCTATGA", "switch fluorescence ratio": 1.05},
      {"sequence": "CAACCTTAAC", "switch fluorescence ratio": 1.34},
      {"sequence": "CAACGCCGCA", "switch fluorescence ratio": 1.17},
      {"sequence": "CAACGCGAGC", "switch fluorescence ratio": 2.92},
      {"sequence": "CAACGGATAG", "switch fluorescence ratio": 1.09},
      {"sequence": "CAACGGGGCT", "switch fluorescence ratio": 1.02},
      {"sequence": "CAACGGTCGT", "switch fluorescence ratio": 0.993},
      {"sequence": "CAACGTTATA", "switch fluorescence ratio": 1.19},
      {"sequence": "CAACTAGTAA", "switch fluorescence ratio": 1.03},
      {"sequence": "CAACTATATG", "switch fluorescence ratio": 0.982},
      {"sequence": "CAACTCGTCG", "switch fluorescence ratio": 0.974},
      {"sequence": "CAACTTGCTA", "switch fluorescence ratio": 1.01},
      {"sequence": "CAAGAACTTT", "switch fluorescence ratio": 1.02},
      {"sequence": "CAAGAAGTTT", "switch fluorescence ratio": 1.01},
      {"sequence": "CAAGAATACC", "switch fluorescence ratio": 1.01},
      {"sequence": "CAAGAGGTGG", "switch fluorescence ratio": 1.02},
      {"sequence": "CAAGATGCTG", "switch fluorescence ratio": 0.99},
      {"sequence": "CAAGCACCCA", "switch fluorescence ratio": 1.14},
      {"sequence": "CAAGCATCCG", "switch fluorescence ratio": 1.04},
      {"sequence": "CAAGCCGACT", "switch fluorescence ratio": 1},
      {"sequence": "CAAGCCTAC", "switch fluorescence ratio": 1.32},
      {"sequence": "CAAGCGTGGG", "switch fluorescence ratio": 0.934},
      {"sequence": "CAAGGATAGT", "switch fluorescence ratio": 0.975},
      {"sequence": "CAAGGATGGC", "switch fluorescence ratio": 1.04},
      {"sequence": "CAAGGCCAAC", "switch fluorescence ratio": 0.975},
      {"sequence": "CAAGGGAGTG", "switch fluorescence ratio": 1.01},
      {"sequence": "CAAGGGGAAC", "switch fluorescence ratio": 0.983},
      {"sequence": "CAAGGTTAGG", "switch fluorescence ratio": 1.02},
      {"sequence": "CAAGTCAATT", "switch fluorescence ratio": 0.979},
      {"sequence": "CAAGTGAGCG", "switch fluorescence ratio": 0.962},
      {"sequence": "CAAGTGGCCA", "switch fluorescence ratio": 1},
      {"sequence": "CAAGTGGTCA", "switch fluorescence ratio": 0.968},
      {"sequence": "CAAGTGTTGA", "switch fluorescence ratio": 1.06},
      {"sequence": "CAAGTTCATA", "switch fluorescence ratio": 0.975},
      {"sequence": "CAAGTTGAA", "switch fluorescence ratio": 1.03},
      {"sequence": "CAATACGCAT", "switch fluorescence ratio": 2.22},
      {"sequence": "CAATACTAAA", "switch fluorescence ratio": 1.06},
      {"sequence": "CAATAGACGT", "switch fluorescence ratio": 0.997},
      {"sequence": "CAATAGTAGG", "switch fluorescence ratio": 1},
      {"sequence": "CAATATAAGA", "switch fluorescence ratio": 1.07},
      {"sequence": "CAATATAGAG", "switch fluorescence ratio": 0.997},
      {"sequence": "CAATCCCCGG", "switch fluorescence ratio": 0.993},
      {"sequence": "CAATCGTGTC", "switch fluorescence ratio": 0.988},
      {"sequence": "CAATCTCCAT", "switch fluorescence ratio": 1.02},
      {"sequence": "CAATCTCGTT", "switch fluorescence ratio": 1},
      {"sequence": "CAATCTTTCG", "switch fluorescence ratio": 0.969},
      {"sequence": "CAATGCGG", "switch fluorescence ratio": 1.02},
      {"sequence": "CAATGCTGGG", "switch fluorescence ratio": 1.01},
      {"sequence": "CAATGGACGA", "switch fluorescence ratio": 1.02},
      {"sequence": "CAATGGTAC", "switch fluorescence ratio": 1.1},
      {"sequence": "CAATGTAAAC", "switch fluorescence ratio": 1.06},
      {"sequence": "CAATGTGACT", "switch fluorescence ratio": 1.02},
      {"sequence": "CAATGTTTAC", "switch fluorescence ratio": 0.999},
      {"sequence": "CAATTAACTC", "switch fluorescence ratio": 1.04},
      {"sequence": "CAATTAGCTA", "switch fluorescence ratio": 1.02},
      {"sequence": "CAATTCATGA", "switch fluorescence ratio": 1.02},
      {"sequence": "CAATTCGTAC", "switch fluorescence ratio": 1.07},
      {"sequence": "CAATTCGTTC", "switch fluorescence ratio": 1.04},
      {"sequence": "CAATTGCGCA", "switch fluorescence ratio": 0.966},
      {"sequence": "CAATTGCGTC", "switch fluorescence ratio": 1.02},
      {"sequence": "CAATTTGCTA", "switch fluorescence ratio": 1.02},
      {"sequence": "CAATTTGGCT", "switch fluorescence ratio": 1.03},
      {"sequence": "CAATTTGGGC", "switch fluorescence ratio": 0.996},
      {"sequence": "CACAAATCGG", "switch fluorescence ratio": 1.02},
      {"sequence": "CACAACTGTC", "switch fluorescence ratio": 0.995},
      {"sequence": "CACAAGAA", "switch fluorescence ratio": 1.04},
      {"sequence": "CACAAGAGC", "switch fluorescence ratio": 0.987},
      {"sequence": "CACAAGGCCC", "switch fluorescence ratio": 0.964},
      {"sequence": "CACAATAGCT", "switch fluorescence ratio": 1.03},
      {"sequence": "CACACAAAGT", "switch fluorescence ratio": 1.05},
      {"sequence": "CACACAATCG", "switch fluorescence ratio": 1.04},
      {"sequence": "CACACAATGT", "switch fluorescence ratio": 1.03},
      {"sequence": "CACACGAAAC", "switch fluorescence ratio": 1.2},
      {"sequence": "CACAGAAGT", "switch fluorescence ratio": 1.01},
      {"sequence": "CACAGATGGG", "switch fluorescence ratio": 1.02},
      {"sequence": "CACAGTACGA", "switch fluorescence ratio": 1.5},
      {"sequence": "CACAGTTTGG", "switch fluorescence ratio": 0.913},
      {"sequence": "CACATACGGG", "switch fluorescence ratio": 1.62},
      {"sequence": "CACATAGAT", "switch fluorescence ratio": 1.08},
      {"sequence": "CACATGAATG", "switch fluorescence ratio": 0.954},
      {"sequence": "CACATGGGAT", "switch fluorescence ratio": 1.01},
      {"sequence": "CACATTCTAG", "switch fluorescence ratio": 0.965},
      {"sequence": "CACATTCTGA", "switch fluorescence ratio": 0.998},
      {"sequence": "CACCAAAGTT", "switch fluorescence ratio": 1.01},
      {"sequence": "CACCAACATA", "switch fluorescence ratio": 1.12},
      {"sequence": "CACCATAGCT", "switch fluorescence ratio": 1.01},
      {"sequence": "CACCATTAAG", "switch fluorescence ratio": 1.02},
      {"sequence": "CACCCGAGTG", "switch fluorescence ratio": 1.46},
      {"sequence": "CACCGCCAGC", "switch fluorescence ratio": 3.09},
      {"sequence": "CACCGCCGGG", "switch fluorescence ratio": 1.07},
      {"sequence": "CACCGGCATA", "switch fluorescence ratio": 2.11},
      {"sequence": "CACCGTCGCT", "switch fluorescence ratio": 1.09}
    ]}
  ]
}
